Results on 31 compounds are retold here after PubChem BioAssay AID1745853 (National Center for Advancing Translational Sciences (NCATS), 2022).

The list shows a part of the results. Further columns of the screen follow, without active or inactive calls.

What all share (experiment): Primary Screen for Target Class Profiling of Small Molecule Inhibitors of Methyltransferases
The target of experiment [1] is Glycine N-methyltransferase (Homo sapiens) (UniProt Q14749). The settings on record: purified enzyme, MTase-Glo SAH luminescence; measured here: GNMT inhibition; at 40 µM; stronger effect = lower value. The gist of the method:
(§1)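 Each enzyme was reacted with SAM and its substrate, with compounds tested once at 40 uM; SAH formed was read by MTase-Glo luminescence.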

For experiment [2], the target named is Guanidinoacetate N-methyltransferase (Homo sapiens) (UniProt Q14353). The settings on record: purified enzyme, MTase-Glo SAH luminescence; measured here: GAMT inhibition; at 40 µM; stronger effect = lower value. The procedure, abridged: as §1
Experiment [3] has as its target Histamine N-methyltransferase (Homo sapiens) (UniProt P50135). The settings on record: purified enzyme, MTase-Glo SAH luminescence; measured here: HNMT inhibition; at 40 µM; stronger effect = lower value. The procedure, abridged: as §1
The target in experiment [4] is Nicotinamide N-methyltransferase (Homo sapiens) (UniProt P40261). The settings on record: purified enzyme, MTase-Glo SAH luminescence; measured here: NNMT inhibition; at 40 µM; stronger effect = lower value. The procedure, abridged:
as §1

Experiment [5] deals with Phenylethanolamine N-methyltransferase (Homo sapiens) (UniProt P11086). The settings on record: purified enzyme, MTase-Glo SAH luminescence; measured here: PNMT inhibition; at 40 µM; stronger effect = lower value. The procedure, abridged: as §1
% is set by controls: 0 for no effect and ±100 for the full control effect.

For the compound `COc1ccc(CN2C(=O)c3ccc(-c4ccccc4)n3CC2(C)C(=O)NC2CCCC2)cc1` (stereo not drawn), the activity change, negative = inhibition in experiment [1] is -7.26%; in experiment [2] it was -3.22%; in experiment [3], -5.11%; in experiment [4] it was -9.38%; in experiment [5], -2.25%.

Regarding `CCOC(=O)CC(NC(=O)N1CCn2c(C)ccc2C1CC)c1ccccc1` (stereo not drawn), the activity change, negative = inhibition in experiment [1] was -1.56%; in experiment [2], 2.58%; in experiment [3] it was 1.47%; in experiment [4], -5.85%; in experiment [5], -3.69%.

In the case of `CSCCC(NC(=O)c1ccccc1NC(=O)c1ccc(C)cc1)C(=O)O` (stereo not drawn), the activity change, negative = inhibition in experiment [1] is -3.9%; in experiment [2], 3.86%; in experiment [3], -4.11%; in experiment [4], 4.51%; in experiment [5], -3.36%.

With `O=C(c1ccccc1F)N1CCC(Cc2nc(-c3cnccn3)no2)CC1`, the activity change, negative = inhibition is -4.91% in experiment [1]; -2.61% in experiment [2]; 0.283% in experiment [3]; -16.8% in experiment [4]; -2.11% in experiment [5].

Regarding `CN(Cc1cnc2nc(N)nc(N)c2n1)c1ccc(C(=O)N[C@@H](CCC(=O)O)C(=O)O)cc1`, the activity change, negative = inhibition in experiment [1] is -4.96%; in experiment [2], 13.9%; in experiment [3], 9.7%; in experiment [4], -2.35%; in experiment [5], 0.784%.

Take `COc1cc(F)ccc1-c1nc(-c2c(C)noc2C)cc2cc(C)oc12`: the activity change, negative = inhibition was -7.86% in experiment [1]; -8.03% in experiment [2]; -6.86% in experiment [3]; -33.2% in experiment [4]; 1.64% in experiment [5].

Turning to `CCCN1C(=O)c2c(C(=O)NCc3ccc(F)cc3)ncn2CC1(C)C(=O)NCc1ccc(C)cc1` (stereo not drawn), the activity change, negative = inhibition in experiment [1] is 3.36%; in experiment [2], 0.448%; in experiment [3] it was 11%; in experiment [4], 2.1%; in experiment [5] it was 11.5%.

On to `Nc1nc(-n2cc(C(=O)O)c(=O)c3cc(F)c(N4CC(O)C4)c(Cl)c32)c(F)cc1F`, for which the activity change, negative = inhibition is 3.43% in experiment [1]; 8.84% in experiment [2]; 5.24% in experiment [3]; -8.94% in experiment [4]; 1.48% in experiment [5].

As for `CC(=O)NC(C(=O)OC1CCC(C)(C)C2CC=C3C(=O)OCC3C12C)C(C)C` (stereo not drawn), the activity change, negative = inhibition in experiment [1] was 1.13%; in experiment [2], 2.92%; in experiment [3], -1.47%; in experiment [4], -6.6%; in experiment [5], -0.433%.

Consider `CN1C(=O)c2cc(C(=O)NCc3ccc4c(c3)OCO4)nn2CC1(C)C(=O)NCc1ccc(F)cc1` (stereo not drawn), for which the activity change, negative = inhibition in experiment [1] was 0.457%; in experiment [2] it was 3.61%; in experiment [3] it was -1.18%; in experiment [4], -0.586%; in experiment [5] it was -0.466%.

With `COC(=O)C[C@H]1CN(C(=O)OC(C)(C)C)CCN1`, the activity change, negative = inhibition was -5.8% in experiment [1]; -10.5% in experiment [2]; -4.83% in experiment [3]; -17.5% in experiment [4]; -5.42% in experiment [5].

Consider `COC(=O)c1ncn2c1C(=O)N(c1ccc(F)cc1)C(C)(C(=O)NC1CCCC1)C2` (stereo not drawn), for which the activity change, negative = inhibition in experiment [1] is 1.62%; in experiment [2] it was 0%; in experiment [3] it was -1.65%; in experiment [4], 0.848%; in experiment [5], -0.341%.

Consider `CC1CCC(NC(=O)C2(C)Cn3c(cc4occc43)C(=O)N2Cc2ccc(Cl)cc2)CC1` (stereo not drawn), for which the activity change, negative = inhibition is -2.29% in experiment [1]; 17.1% in experiment [2]; 4.13% in experiment [3]; -10.4% in experiment [4]; -6.2% in experiment [5].

`Cc1cnc(C2CC2)n1C1CCCN(Cc2ccccc2)C1` (stereo not drawn): the activity change, negative = inhibition was -0.142% in experiment [1]; 0.149% in experiment [2]; -67.1% in experiment [3]; -5.5% in experiment [4]; -20.4% in experiment [5].

With `CN(CC(=O)NCc1ccc(Cl)cc1)S(=O)(=O)c1ccc2[nH]c3c(c2c1)CCCC3`, the activity change, negative = inhibition in experiment [1] was -6.7%; in experiment [2] it was 0%; in experiment [3], -4.81%; in experiment [4], -3.95%; in experiment [5], -3.25%.

Regarding `CC(C)Cn1c(=O)c2ccc(C(=O)NC3CCCCC3)cc2n2c(=O)[nH]nc12`, the activity change, negative = inhibition is 2.03% in experiment [1]; 1.77% in experiment [2]; 9.46% in experiment [3]; -0.782% in experiment [4]; -4.74% in experiment [5].

Turning to `CC(C)NC(=O)c1ccc2c(=O)n(C3CC3)c3nn(CC(=O)Nc4ccccc4Cl)c(=O)n3c2c1`, the activity change, negative = inhibition in experiment [1] amounted to 1.82%; in experiment [2] it was 3.12%; in experiment [3], 3.46%; in experiment [4], 1.78%; in experiment [5], 2.97%.

For `CC(C)Cc1cc(C(=O)NCC2CCN(c3cnn(C)c(=O)c3)C2)no1` (stereo not drawn), the activity change, negative = inhibition was -5.15% in experiment [1]; -7.95% in experiment [2]; -3.6% in experiment [3]; -17.5% in experiment [4]; -10.7% in experiment [5].

For `CCCCN(CC)CCN1C(=O)c2ccc(-c3ccco3)n2CC1(C)C(=O)NC1CCCCC1` (stereo not drawn), the activity change, negative = inhibition in experiment [1] came to 7.23%; in experiment [2], 0%; in experiment [3] it was 8.09%; in experiment [4], 9.81%; in experiment [5] it was 4.41%.

Turning to `c1ccc(OCCCn2cc(-c3cncnc3)nn2)cc1`, the activity change, negative = inhibition was -6.2% in experiment [1]; -6.91% in experiment [2]; -4.58% in experiment [3]; -9.49% in experiment [4]; -10.7% in experiment [5].

As for `COc1ccc(S(=O)(=O)N2CCC(n3cnnc3C)CC2)cc1OC`, the activity change, negative = inhibition was 1.88% in experiment [1]; 0% in experiment [2]; 11.6% in experiment [3]; 8.6% in experiment [4]; 6.32% in experiment [5].

Turning to `CCCn1cnc2c(NCc3ccc(C)s3)nc(N[C@H](CC)CO)nc21`, the activity change, negative = inhibition in experiment [2] was 10.2%; in experiment [4] it was -14.2%; in experiment [5], 3.16%.

For `CCc1cc2c(cc3n2CC(C)(C(=O)NC2CCCCC2)N(Cc2cccs2)C3=O)s1` (stereo not drawn), the activity change, negative = inhibition in experiment [1] was -1.44%; in experiment [2] it was 0%; in experiment [3] it was 2.19%; in experiment [4], 0.62%; in experiment [5], -1.65%.

With `CCC(CC)C(=O)N1CC[C@@H]2COCCN(Cc3cccnc3)[C@@H]2C1`, the activity change, negative = inhibition is -5.14% in experiment [1]; -6.58% in experiment [2]; -2.31% in experiment [3]; -7.61% in experiment [4]; -7.86% in experiment [5].

As for `COc1cccc(C(=O)Cn2nc3n(CCc4ccccc4)c(=O)c4ccccc4n3c2=O)c1`, the activity change, negative = inhibition was 1.15% in experiment [1]; 4.71% in experiment [2]; 1.98% in experiment [3]; -1.13% in experiment [4]; 1% in experiment [5].

For the compound `CC(C)C[C@H](C(=O)O)c1cc(-c2ccc(C(F)(F)F)cc2)cc(-c2ccc(C(F)(F)F)cc2)c1`, the activity change, negative = inhibition is -14.3% in experiment [1]; -50.2% in experiment [2]; -4.64% in experiment [3]; -77.2% in experiment [4]; -11.3% in experiment [5].

For `CC(C)c1cc(C(=O)N[C@@H]2COCC[C@@H]2OCc2cscn2)cs1`, the activity change, negative = inhibition is -2.98% in experiment [1]; -1.75% in experiment [2]; -1.26% in experiment [3]; -3.57% in experiment [4]; -0.021% in experiment [5].

With `Cc1ccc(CN2C(=O)CSc3c(c4ccccc4n3C)C2C(=O)NCCCOC(C)C)cc1` (stereo not drawn), the activity change, negative = inhibition was 5.61% in experiment [1]; 1.79% in experiment [2]; 8.83% in experiment [3]; -2.87% in experiment [4]; 4.37% in experiment [5].

For the compound `COCCCNc1nc2c(S(=O)(=O)c3ccccc3)nnn2c2ccc(Cl)cc12`, the activity change, negative = inhibition in experiment [1] was -2.48%; in experiment [2] it was 2.38%; in experiment [3], 8.05%; in experiment [4] it was 8.4%; in experiment [5], 1.54%.

In the case of `O=C1CO[C@H]2CN(Cc3ccc(C(F)(F)F)cc3)C[C@H]2N1`, the activity change, negative = inhibition in experiment [1] was -1.46%; in experiment [2], -0.185%; in experiment [3], 2%; in experiment [4], -1.55%; in experiment [5], -1.4%.

Consider `Cc1cc(C)cc(NC(=O)c2cc3n(n2)CC(C)(C(=O)NC2CCCCC2)N(C)C3=O)c1` (stereo not drawn), for which the activity change, negative = inhibition came to 8.22% in experiment [1]; 0% in experiment [2]; 6.46% in experiment [3]; 8.09% in experiment [4]; 0.562% in experiment [5].
